What all share (experiment): BLI
Experiment [1] addresses Recombinant Mouse B7-H1/PD-L1 Fc chimera (R&D Systems, Cat: 434-CT-200) (mouse, UniProt Q9EP73 in part).
The target in experiment [2] is Recombinant Mouse CTLA-4 Fc chimera (R&D Systems, Cat: 434-CT-200) (mouse, UniProt P09793 36-162).
For experiment [3], the target named is T1, Human IL-2 R beta protein, His-Tag (Acro, CD2-H5221) (human, UniProt P14784 27-239).
T1 chain: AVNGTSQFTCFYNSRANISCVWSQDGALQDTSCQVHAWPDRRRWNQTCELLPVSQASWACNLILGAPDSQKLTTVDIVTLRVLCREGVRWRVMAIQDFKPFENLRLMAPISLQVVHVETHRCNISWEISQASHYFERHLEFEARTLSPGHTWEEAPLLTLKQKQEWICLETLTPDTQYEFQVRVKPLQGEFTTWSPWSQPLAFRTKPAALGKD

The target in experiment [4] is T1, Human IL-2 R beta protein, His-Tag ….
Experiment [5] has as its target T2, Human IL-2 R alpha protein, His Tag (Acro, ILA-H52H9) (human, UniProt P01589 22-213).
T2 chain: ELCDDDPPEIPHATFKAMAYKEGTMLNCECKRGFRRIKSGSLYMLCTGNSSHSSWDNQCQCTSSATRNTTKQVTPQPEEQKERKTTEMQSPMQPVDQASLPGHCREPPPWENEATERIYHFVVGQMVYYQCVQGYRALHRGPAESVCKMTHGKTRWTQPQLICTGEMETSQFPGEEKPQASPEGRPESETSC

Experiment [6] deals with T2, Human IL-2 R alpha protein, His Tag ….

Kd data for three molecules are collected here from patent publication US11857601 (dated 2024).

The Kd is the constant that tells how readily two partners part at equilibrium.

Read-outs that look alike come from different tables or passages of the source.

Sequence of UniProt Q9EP73 (Q9EP73 19-238, change not shown): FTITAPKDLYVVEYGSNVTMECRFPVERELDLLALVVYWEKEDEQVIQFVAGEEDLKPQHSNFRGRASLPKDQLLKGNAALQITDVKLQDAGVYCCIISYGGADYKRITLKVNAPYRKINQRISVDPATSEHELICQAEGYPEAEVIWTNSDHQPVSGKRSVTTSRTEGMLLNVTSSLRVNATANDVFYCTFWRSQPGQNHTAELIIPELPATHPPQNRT

B1: mGI101 (mCD80-Fc-IL-2 variant (2M)) (Fc fusion)
chain: MDAMLRGLCCVLLLCGAVFVSPSHAVDEQLSKSVKDKVLLPCRYNSPHEDESEDRIYWQKHDKVVLSVIAGKLKVWPEYKNRTLYDNTTYSLIILGLVLSDRGTYSCVVQKKERGTYEVKHLALVKLSIKADFSTPNITESGNPSADTKRITCFASGGFPKPRFSWLENGRELPGINTTISQDPESELYTISSQLDFNTTRNHTIKCLIKYGDAHVSEDFTWEKPPEDPPDSGSGGGGSGGGGSGGGGSAESKYGPPCPPCPAPEAAGGPSVFLFPPKPKDQLMISRTPEVTCVVVDVSQEDPEVQFNWYVDGVEVHNAKTKPREEQFNSTYRVVSVLTVLHQDWLNGKEYKCKVSNKGLPSSIEKTISKAKGQPREPQVYTLPPSQEEMTKNQVSLTCLVKGFYPSDIAVEWESNGQPENNYKTTPPVLDSDGSFFLYSRLTVDKSRWQEGNVFSCSVLHEALHNHYTQKSLSLSLGGGGGS[about 150 residues left out]
Turning to B1, the Kd was determined as 9.91 nM in experiment [1] and 25.8 nM in experiment [2].

B2: Proleukin (Novartis, hIL-2) (ligand)
chain: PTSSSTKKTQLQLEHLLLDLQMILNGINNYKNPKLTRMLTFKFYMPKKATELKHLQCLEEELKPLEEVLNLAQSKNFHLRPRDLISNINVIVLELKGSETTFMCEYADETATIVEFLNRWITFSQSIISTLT
Turning to B2, the Kd worked out at 91.7 nM in experiment [3], 91.7 nM in experiment [4], 1.3 nM in experiment [5] and 1.3 nM in experiment [6].

B3: GI101w (CD80-Fc-IL-2) (Fc fusion)
chain: VIHVTKEVKEVATLSCGHNVSVEELAQTRIYWQKEKKMVLTMMSGDMNIWPEYKNRTIFDITNNLSIVILALRPSDEGTYECVVLKYEKDAFKREHLAEVTLSVKADFPTPSISDFEIPTSNIRRIICSTSGGFPEPHLSWLENGEELNAINTTVSQDPETELYAVSSKLDFNMTTNHSFMCLIKYGHLRVNQTFNWNTTKQEHFPDNGSGGGGSGGGGSGGGGSAESKYGPPCPPCPAPEAAGGPSVFLFPPKPKDQLMISRTPEVTCVVVDVSQEDPEVQFNWYVDGVEVHNAKTKPREEQFNSTYRVVSVLTVLHQDWLNGKEYKCKVSNKGLPSSIEKTISKAKGQPREPQVYTLPPSQEEMTKNQVSLTCLVKGFYPSDIAVEWESNGQPENNYKTTPPVLDSDGSFFLYSRLTVDKSRWQEGNVFSCSVLHEALHNHYTQKSLSLSLGGGGGS[about 150 residues left out]
B3: the dissociation constant (Kd) in experiment [3] turned out to be 37.4 nM; in experiment [4], 37.4 nM; in experiment [5], 1.6 nM; in experiment [6], 1.6 nM.
